{
  "source": "patent US20120114590A1",
  "about": "(priority 2005, published 2012)",
  "system": "human peripheral blood mononuclear cells",
  "assay": "Induction of IL-28A, IL-29 and IL-28B RNA by poly I:C (RT-PCR)",
  "format": "cell-based",
  "details": "poly I:C 100 μg/ml, 15 h, versus untreated cells",
  "experimental": "After a 15 h incubation, total RNA was isolated from cells and treated with RNase-free DNase.",
  "data": [
    {"substance": "polyinosinic acid-polycytidylic acid [poly I:C]", "values": [
      {"measurement": "amount of IL-28A, IL-29, IL-28B RNA", "result": "increased"}
    ]}
  ]
}
